The campaign covered roughly 50,000 compounds. About 800 (1.6%) showed an effect of 50% or more. Some of the results follow.
What follows are compounds tested against Bcl-2-like protein 10 (Homo sapiens) (UniProt Q9HD36) (assay: Phenotype converters, Bcl-B/TR3 peptide binding displacement, primary biochemical FP (AID 1240;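 note: 0% = Bcl-B with tracer peptide and DMSO and 100% = tracer peptide lacking Bcl-B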)). Details: GST-Bcl-B / FITC-TR3 peptide fluorescence polarization; stronger effect = higher value; compound at 3.75 mg/L.
Sequence of UniProt Q9HD36 (Q9HD36 whole entry, looked up): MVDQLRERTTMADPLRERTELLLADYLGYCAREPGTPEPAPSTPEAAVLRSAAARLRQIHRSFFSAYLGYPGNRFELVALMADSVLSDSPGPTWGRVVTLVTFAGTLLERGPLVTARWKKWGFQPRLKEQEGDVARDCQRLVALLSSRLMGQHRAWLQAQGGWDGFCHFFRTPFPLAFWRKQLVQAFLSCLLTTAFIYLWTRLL

| Compound | displacement [%] |
| --- | --- |
| CCc1ccccc1NC(=O)/C=C/c1ccccc1 | 13.7 |
| O=C(CSc1nnc(-c2ccccc2)c(-c2ccccc2)n1)Nc1nccs1 | 4.6 |
| O=C(O)CCCNC(=O)c1cn(-c2ccccc2)nc1-c1ccccc1 | 16.9 |
| COc1ccccc1C1Nc2ccccc2NC2=C1C(=O)CC(c1ccc(Cl)cc1)C2 (configuration not stated) | 5.5 |
| Cc1ccc(N2C(=O)CC(NCCc3ccc(Cl)cc3)C2=O)cc1Cl (configuration not stated) | -21.3 |
| COc1cc(/C=N/N2C(=O)c3cccc4cccc(c34)C2=O)ccc1O | -2.7 |
| COc1ccc(/C=N/N2CCN(Cc3ccc(C)cc3)CC2)cc1Br | 5 |
| CCOC(=O)c1sc(NC(NC(=O)c2ccco2)C(=O)c2ccccc2)c(C(=O)OCC)c1C (configuration not stated) | 2.1 |
| Cc1c(NC(=O)c2ccco2)cccc1[N+](=O)[O-] | 21.9 |
| O=[N+]([O-])c1ccc(Cl)c2ncccc12 | 17.1 |
| CCc1nnc(NC(=O)C2CC3CCC2C3)s1 (configuration not stated) | -2.8 |
| COc1ccc(C(=O)N(CCCCN2C(=O)c3ccccc3C2=O)c2ccc(C)cc2)cc1OC | 1.9 |
| Cc1cc(Cl)ccc1OCC(=O)N1CCOCC1 | -8.7 |
| Clc1ccc(Nc2nc(N/N=C\c3cccnc3)nc(N3CCOCC3)n2)cc1 | 29.8 |
| CCC(C(=O)Nc1cc([N+](=O)[O-])ccc1OC)c1ccccc1 (configuration not stated) | 5.6 |
| Cc1ccc2c(Cl)c(C(=O)O)sc2c1 | 0.8 |
| Cc1ccc(C(=O)N2CCN(C)CC2)cc1 | -7.7 |
| CC(C)(C)C(=O)Oc1ccc2c(=O)c(Oc3ccccc3Br)coc2c1 | 7.3 |
| O=C(O)CN(c1ccccc1)S(=O)(=O)c1ccccc1[N+](=O)[O-] | 4.7 |
| O=C(Nc1ccccc1)Nc1nnc(-c2cccc(Br)c2)s1 | 11.9 |
| COc1ccccc1N1CCN(C(=S)Nc2ccc(F)cc2)CC1 | -0.4 |
| Cc1cc(-c2ccc(F)cc2)nc2cc(C(=O)O)nn12 | 1.6 |
| CC(=O)O/N=C(N)/C(=N/OC(C)=O)c1nc2ccccc2[nH]1 | -10.3 |
| COc1ccc(/C(N)=N/OC(=O)c2ccccc2I)cc1OC | 10.9 |

| Compound | displacement [%] |
| --- | --- |
| CC12C=CC(O1)C1C(=O)N(c3ccccc3)C(=O)C12 (configuration not stated) | 7.6 |
| O=C(Nc1ccc(S(=O)(=O)N2CCCCCC2)cc1)c1ccc(F)cc1 | 1.3 |
| COc1ccccc1N(CC(=O)Nc1cccc(C)c1C)S(=O)(=O)c1ccccc1 | 5.7 |
| N#Cc1cc2c(nc1SCC(=O)Nc1ccc(S(N)(=O)=O)cc1)CCC2 | -45.2 |
| C(=Nc1ccccc1-c1nc2ccccc2[nH]1)c1ccco1 | 9.8 |
| Cc1cc(=O)[nH]c(SCC(=O)Nc2ccccc2Br)n1 | 6.6 |
| C/C(=C\c1ccccc1F)C(=O)c1c(C)cc(C)[nH]c1=O | 4.5 |
| Cc1ccc(/C=C/C(=O)Nc2nc(-c3ccccc3)c(C)s2)cc1 | -2.3 |
| CC(C)=CCC/C(C)=C/C1OCCCO1 | -10.4 |
| O=[N+]([O-])c1ccc(-c2noc(CCc3ccccc3)n2)cc1 | 10.1 |
| COc1ccc(N=Cc2ccc(N3Cc4cc(C)c(C)cc4C3)cc2)cc1 | 3.1 |
| COc1ccc(N(CC(=O)Nc2ccc(I)cc2)S(C)(=O)=O)cc1Cl | 6.5 |
| CCCC(=O)Nc1ccc(NC(=O)c2cccc([N+](=O)[O-])c2)cc1 | 12.7 |
| Nc1nonc1C(=O)NCCNc1ccc([N+](=O)[O-])cc1Cl | 1.6 |
| Cc1cc(OCC(=O)NCc2ccco2)ccc1Br | 1.6 |
| COc1cc(C=O)cc(Br)c1OCCOc1ccc(C)c(C)c1 | -9.4 |
| O=C(NCCc1ccc(Cl)cc1)C1CC(=O)N(c2ccc(Br)cc2)C1 (configuration not stated) | 9.4 |
| Cc1ccccc1Cn1c(NC(=O)c2ccc(Cl)cc2)nc2ccccc21 | 8.8 |
| Cn1c(SCC(=O)Nc2ccccc2)nc2ccccc21 | -6.6 |
| Cc1ccc(S(=O)(=O)N/N=C/c2cc(Cl)cc(Cl)c2O)cc1 | 1.7 |
| O=C(COc1ccc(Cl)cc1Cl)NS(=O)(=O)c1ccccc1 | 15.9 |
| Cn1c(=O)n(CC(=O)O)c2ccccc21 | -6.5 |
| O=C1CC(Cc2ccccc2)C(=O)N1CCc1ccc2c(c1)OCO2 (configuration not stated) | -8.6 |
| COc1ccc(CN2CCN(C3CCCCC3)CC2)cc1Br | -1.9 |

| Compound | displacement [%] |
| --- | --- |
| Cc1cc(C)nc(Sc2nc(Nc3ccccc3)nc(Sc3nc(C)cc(C)n3)n2)n1 | 7.2 |
| N#CC1=C(N)Oc2c([nH]c(=O)[nH]c2=O)C1c1ccccc1 (configuration not stated) | 2.5 |
| CN1C(c2ccccc2)CC(O)(C#Cc2ccccc2)CC1c1ccccc1 (configuration not stated) | -8 |
| CC(=O)C1=C(O)C(=O)N(CC2CCCO2)C1c1ccc(O)cc1 (configuration not stated) | -2.6 |
| COc1ccc(CCNC(=S)Nc2ccccc2)cc1 | -7.6 |
| Cc1ccc2nc(-c3ccc(N=Cc4ccc(Cl)c([N+](=O)[O-])c4)cc3)sc2c1 | -4.8 |
| CCN1C(=O)/C(=C2\SC(=S)N(CC3CCCO3)C2=O)c2ccccc21 (configuration not stated) | -7.3 |
| CCOC(=O)c1ccc(NC(=S)NC(NC(=O)c2ccc(Br)cc2)C(Cl)(Cl)Cl)cc1 (configuration not stated) | -24.9 |
| CC1(C)CC(=O)C(C=NCCc2ccc(S(N)(=O)=O)cc2)=C(O)C1 | 14 |
| C/C(=N/NC(=O)c1ccoc1C)C12CC3CC(CC(C3)C1)C2 | 14.3 |
| CC(=O)Nc1ccccc1NC(=O)COc1cccc(C)c1 | -5.8 |
| O=C(COc1ccccc1[N+](=O)[O-])Nc1ccc(-c2nc3ncccc3o2)cc1 | 2.9 |
| NC(=O)SCC(=O)Nc1ccc(Br)cc1 | 4.1 |
| COC(=O)c1cccc(-c2ccc(C=C3C(=O)N(C)C(=O)N(C)C3=O)o2)c1 | 7.7 |
| CC1=NN(C(=O)CCc2ccccc2)C(O)(c2ccc(Br)cc2)C1 (configuration not stated) | 1.9 |
| COc1ccc(/C=N/NC(=O)c2ccc(=O)n(C)c2)cc1 | 5 |
| O=C(c1ccc(Cl)c(Cl)c1)N1CCOCC1 | 1.5 |
| O=C(Nc1ccc2nn(-c3ccc(F)cc3)nc2c1)c1cccnc1 | -2.2 |
| CCCc1cc(=O)oc2cc(C)cc(O)c12 | 11 |
| CCOC(=O)c1ccccc1NC(=O)CN(c1ccc(OC)cc1)S(=O)(=O)c1ccc(C)cc1 | -0.7 |
| O=C(NCc1ccccc1)c1cc2nc(-c3cccs3)cc(C(F)(F)F)n2n1 | -15.2 |
| COc1ccc(C(=O)CC2(O)C(=O)Nc3ccccc32)cc1OC (configuration not stated) | -6.9 |
| NS(=O)(=O)c1ccc(NC(=O)CCN2C(=O)S/C(=C\c3ccc(Cl)cc3)C2=O)cc1 | -5.5 |
| Cc1ccccc1NC(=O)C(=O)NCc1ccccn1 | 1.7 |

— PubChem BioAssay AID1240 (Sanford-Burnham Center for Chemical Genomics, 2008)
